These results are taken from publication PMC9911399, “Two distinct binding modes provide the RNA-binding protein RbFox with extraordinary sequence specificity”.

Substitutions are numbered along the chain they refer to; changes in the protein carry UniProt numbers. The list shows a part of the results.

T1: RBFOX1 RRM RbFoxmut (Fox-RRM*) (Homo sapiens, UniProt Q9NWB1 109-208, R118D;E147R;N151S;E152T)
T1 sequence: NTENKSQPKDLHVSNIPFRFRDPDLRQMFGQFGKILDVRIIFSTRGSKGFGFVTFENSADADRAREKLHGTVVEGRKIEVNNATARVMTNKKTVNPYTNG

B1: UGUAAGG (DNA:RNA)
RNA: GGGAGACCGGAAUUCAGAUUGUCCUGUAAGGUUAAAUCCCGUCGUAGCCACCA
DNA 1: CAATCTGAATTCCGGTCTCCC
DNA 2: TGGTGGCTACGACGGGATT
B2: UGAGCCU (DNA:RNA)
RNA: B1 RNA with U27A, A28G, A29C, G30C, G31U
DNA 1: CAATCTGAATTCCGGTCTCCC
DNA 2: TGGTGGCTACGACGGGATT
B3: GGACUAG (DNA:RNA)
RNA: B1 RNA with U25G, U27A, A28C, A29U, G30A
DNA 1: CAATCTGAATTCCGGTCTCCC
DNA 2: TGGTGGCTACGACGGGATT
B4: GUCCAGC (DNA:RNA)
RNA: B1 RNA with U25G, G26U, U27C, A28C, G31C
DNA 1: CAATCTGAATTCCGGTCTCCC
DNA 2: TGGTGGCTACGACGGGATT
B5: GGUAUUA (DNA:RNA)
RNA: B1 RNA with U25G, A29U, G30U, G31A
DNA 1: CAATCTGAATTCCGGTCTCCC
DNA 2: TGGTGGCTACGACGGGATT
B6: UCAGCUG (DNA:RNA)
RNA: B1 RNA with G26C, U27A, A28G, A29C, G30U
DNA 1: CAATCTGAATTCCGGTCTCCC
DNA 2: TGGTGGCTACGACGGGATT
B7: GAACUGU (DNA:RNA)
RNA: B1 RNA with U25G, G26A, U27A, A28C, A29U, G31U
DNA 1: CAATCTGAATTCCGGTCTCCC
DNA 2: TGGTGGCTACGACGGGATT
B8: CGGACAU (DNA:RNA)
RNA: B1 RNA with U25C, U27G, A29C, G30A, G31U
DNA 1: CAATCTGAATTCCGGTCTCCC
DNA 2: TGGTGGCTACGACGGGATT
B9: UAUGGGA (DNA:RNA)
RNA: B1 RNA with G26A, A28G, A29G, G31A
DNA 1: CAATCTGAATTCCGGTCTCCC
DNA 2: TGGTGGCTACGACGGGATT
B10: GGUGGCG (DNA:RNA)
RNA: B1 RNA with U25G, A28G, A29G, G30C
DNA 1: CAATCTGAATTCCGGTCTCCC
DNA 2: TGGTGGCTACGACGGGATT
B11: UUCCAUU (DNA:RNA)
RNA: B1 RNA with G26U, U27C, A28C, G30U, G31U
DNA 1: CAATCTGAATTCCGGTCTCCC
DNA 2: TGGTGGCTACGACGGGATT
B12: UGCCCGC (DNA:RNA)
RNA: B1 RNA with U27C, A28C, A29C, G31C
DNA 1: CAATCTGAATTCCGGTCTCCC
DNA 2: TGGTGGCTACGACGGGATT
B13: AAUCCGU (DNA:RNA)
RNA: B1 RNA with U25A, G26A, A28C, A29C, G31U
DNA 1: CAATCTGAATTCCGGTCTCCC
DNA 2: TGGTGGCTACGACGGGATT
B14: UUUCCGU (DNA:RNA)
RNA: B1 RNA with G26U, A28C, A29C, G31U
DNA 1: CAATCTGAATTCCGGTCTCCC
DNA 2: TGGTGGCTACGACGGGATT
B15: CCCAACG (DNA:RNA)
RNA: B1 RNA with U25C, G26C, U27C, G30C
DNA 1: CAATCTGAATTCCGGTCTCCC
DNA 2: TGGTGGCTACGACGGGATT
B16: GUGGGGC (DNA:RNA)
RNA: B1 RNA with U25G, G26U, U27G, A28G, A29G, G31C
DNA 1: CAATCTGAATTCCGGTCTCCC
DNA 2: TGGTGGCTACGACGGGATT
B17: UACUUGC (DNA:RNA)
RNA: B1 RNA with G26A, U27C, A28U, A29U, G31C
DNA 1: CAATCTGAATTCCGGTCTCCC
DNA 2: TGGTGGCTACGACGGGATT
B18: UAUCCUC (DNA:RNA)
RNA: B1 RNA with G26A, A28C, A29C, G30U, G31C
DNA 1: CAATCTGAATTCCGGTCTCCC
DNA 2: TGGTGGCTACGACGGGATT
B19: CCUUCGG (DNA:RNA)
RNA: B1 RNA with U25C, G26C, A28U, A29C
DNA 1: CAATCTGAATTCCGGTCTCCC
DNA 2: TGGTGGCTACGACGGGATT
B20: CGAAGCC (DNA:RNA)
RNA: B1 RNA with U25C, U27A, A29G, G30C, G31C
DNA 1: CAATCTGAATTCCGGTCTCCC
DNA 2: TGGTGGCTACGACGGGATT

The target of the assay is T1, RBFOX1 RRM RbFoxmut (Fox-RRM*). The assay is described as follows: EMSA; HiTS-Eq, 1 nM pool, 10 min; buffer printed only for the single-RNA assays: 10 mM Tris pH 7.5, 150 mM NaCl, 3.4 mM EDTA, 0.001% NP-40, 30 C. The note with it: tags: His6 N-terminal (pET28a); label: 5' 32P. In outline: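 These values rest on relative association constants, computed from read-count changes of each RNA species versus the control reaction and normalised to the cognate motif. Reads came from free RNA recovered by 8% native PAGE after purified RbFox RRM (wild type or mutant) at increasing concentrations was equilibrated for 10 min in 50 µL with 1 nM of a 5′-radiolabelled pool with 7 randomized nucleotides and DNA-annealed flanks.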
Background: Mobility shift assays separate free from complexed probe on a gel.
Consider B1, for which the binding signal was 0.0691 KA relative to UGCAUGU. With B2 the figure was 0.081 KA relative to UGCAUGU. Regarding B3, the binding signal is 0.0756 KA relative to UGCAUGU. The value for B4 was 0.114 KA relative to UGCAUGU; that for B5 was 0.107 KA relative to UGCAUGU; that for B6 was 0.102 KA relative to UGCAUGU. In the case of B7, the binding signal was 0.0987 KA relative to UGCAUGU.

For the molecule B8, the binding signal was 0.0704 KA relative to UGCAUGU. Turning to B9, the binding signal is 0.0705 KA relative to UGCAUGU. With B10 the figure was 0.145 KA relative to UGCAUGU. Take B11: the binding signal is 0.0945 KA relative to UGCAUGU. With B12, the binding signal is 0.107 KA relative to UGCAUGU. For B13, the binding signal is 0.0653 KA relative to UGCAUGU. The value for B14 was 0.0848 KA relative to UGCAUGU; that for B15 was 0.0833 KA relative to UGCAUGU; that for B16 was 0.092 KA relative to UGCAUGU. The value for B17 was 0.131 KA relative to UGCAUGU; that for B18 was 0.0711 KA relative to UGCAUGU; that for B19 was 0.0583 KA relative to UGCAUGU. With B20 the figure was 0.125 KA relative to UGCAUGU.
